The results in this text go back to the CheMixHub viscosity set.

Each structure is given as a SMILES string. ± gives the uncertainty stated by the source. This continues a long series; more values of the same kind are listed elsewhere.

The conditions of the data set: 298.15 K; 101 kPa.

On to `CCCC[n+]1ccn(C)c1.O=C([O-])C(F)(F)F`, for which the viscosity is on record as 71.1 ± 1.9 mPa·s.

For orientation: viscosity means the resistance of a fluid to flow.
